According to PubChem BioAssay AID588855 (National Center for Advancing Translational Sciences (NCATS), 2011):
About 5,000 (1.2%) of roughly 410,000 compounds were called active. The shares of active, inactive and inconclusive entries below differ from those in the screen. Calls come from the whole dose curve; as a rule, active = well fitted inhibition curve with a large enough effect; inconclusive = small, poorly fitted or top-dose-only effect; inactive = no such curve, though single readings can be large or run the other way. Where the call is inconclusive, the potency comes from a doubtful curve fit.

assay: qHTS for Inhibitors of TGF-b; conditions: HepG2 CAGA-GFP TGF-b/SMAD3 reporter, GFP fluorescence, 18 h, TGF-beta stimulated, 500 pg/mL final; series mostly up to 46.1 µM; activity, negative = inhibition: at the top concentration; note: nearly all actives have a fitted effect of over 65% in size
Procedure, shortened: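 First, reporter cells (HEPG2 CAGA-GFP) rested 2 h at 37 degrees C. Next, compounds were pinned in and TGF-beta added to 500 pg/mL final. After 18 h, GFP was imaged per cell and summed per well.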
% is set by controls: 0 for no effect and ±100 for the full control effect; potency is the fitted concentration of half-maximal effect; tags give direction and shape of the fitted curve.

SMILES	Potency	activity, negative = inhibition
Cc1cccc(NC(=O)Cn2c(O)c(N=NC(N)=S)c3ccccc32)c1	inconclusive: 5.62 µM [inhibitor, partial curve, poor fit]	
O=C(COC(=O)/C=C/c1cccc([N+](=O)[O-])c1)Nc1cccnc1Cl		inactive: -0.123%
Oc1ccccc1-c1cc(-c2ccc3c(c2)OCCO3)n[nH]1	inconclusive: 22.4 µM [inhibitor, partial curve, poor fit]	
COc1ccc(C(=O)N=C2SC3CS(=O)(=O)CC3N2Cc2ccccc2)cc1OC (centres undefined)		inactive: 2.4%
CC1(C)OC(=O)C2(Cc3ccccc3N3CCC(c4ccccc4)CC32)C(=O)O1 (centres undefined)		inactive: 24.6%
Cc1cccc(NC(=O)NNS(=O)(=O)c2ccc(F)cc2)c1		inactive: -18.6%
Cc1ccc(NC(=O)c2ccc(OC(=O)c3ccco3)cc2)cc1	inconclusive: 2.82 µM [inhibitor, partial curve]	
Cc1ccc(NC(=S)N2CCN(Cc3ccccc3)CC2)c(C)c1	inconclusive: 35.5 µM [inhibitor, single point]	
Cc1csc(NC(=O)C2CCCN(S(=O)(=O)c3ccc(Br)s3)C2)n1 (centres undefined)	active: 17.8 µM	
Cc1ccc(C)c(N2CCN(C(=O)NCc3noc4ccccc34)CC2)c1		inactive: -8.82%
CC1(C(=O)OCC(=O)Nc2ccc3ccccc3c2)CC1(Cl)Cl (centres undefined)	inconclusive: 20 µM [inhibitor, single point]	
CCn1c2ccccc2c2cc(CNCc3ccc(OC)cc3OC)ccc21	inconclusive: 35.5 µM [inhibitor, single point]	
CCOC(=O)c1sc(NC(=O)c2cc(-c3ccc(C)cc3)nc3ccccc23)c(C#N)c1C	inconclusive: 2.51 µM [inhibitor, full curve, poor fit]	
Cc1nn(-c2ccccc2)c(-n2cccc2)c1C(=O)O	inconclusive: 22.4 µM [inhibitor, single point]	
COc1ccc(S(N)(=O)=O)cc1C(=O)OCCCOc1ccc(F)cc1	inconclusive: 22.4 µM [inhibitor, single point]	
COc1cc(Nc2ccn3nc(-c4ccccc4Cl)cc3n2)cc(OC)c1OC	inconclusive: 35.5 µM [inhibitor, single point]	
Cc1ccc(CCNC(=O)CCCn2c(=O)c3cccn3c3ccc(F)cc32)cc1	inconclusive: 2.51 µM [inhibitor, partial curve, poor fit]	
Cc1ccc(CNc2nc(NCc3ccccc3)nc3ccsc23)c(C)c1	active: 5.01 µM	
O=C(Cc1cccc(C(F)(F)F)c1)NCC(c1ccco1)N1CCCCC1 (centres undefined)	inconclusive: 35.5 µM [inhibitor, single point]	
N#C/C(=C(/O)COC(=O)COc1cccc(Br)c1)c1nc2ccccc2[nH]1	inconclusive: 28.2 µM [inhibitor, single point]	
CNC(=O)C1CCC(Cn2c(=O)c3sccc3n(CC(=O)Nc3ccccc3)c2=O)CC1 (centres undefined)		inactive: 1.1%
Cc1ccc(Cn2ncc3c(N4CCN(c5ccccc5C)CC4)ncnc32)cc1	inconclusive: 3.98 µM [inhibitor, full curve]	
Cc1ccc(NC(=O)Cn2c(=O)n(CC(=O)NCCc3ccccc3)c(=O)c3ccccc32)cc1		inactive: 6.47%

SMILES	Potency	activity, negative = inhibition
Cc1onc(C(=O)NN)c1-c1csc(COc2ccccc2)n1	inconclusive: 3.55 µM [inhibitor, partial curve, poor fit]	
COc1ccc(CNC(=O)CCc2c(C)nc3c4cccnc4nn3c2C)cc1	inconclusive: 22.4 µM [inhibitor, single point]	
Cc1oc(-c2ccccc2Cl)nc1CS(=O)(=O)CC(=O)NCCc1ccccc1	inconclusive: 35.5 µM [inhibitor, single point]	
C=CCC[C@@H](Cc1ccc(F)cc1)C(=O)OC[C@@H](NC(=O)[C@@H](CC=C)CC(=O)N(CCO)Cc1ccccc1)c1ccccc1	active: 11.2 µM	
Cc1ccc(OCCSc2nc3ccccc3n2CCC(=O)O)cc1	inactive	
COc1ccc(NC(=O)CN2C(=O)C(=O)c3ccccc32)c(OC)c1	inconclusive: 35.5 µM [inhibitor, single point]	
Cc1ccc(S(=O)(=O)Nc2ccc3ncccc3c2[N+](=O)[O-])cc1		inactive: 0%
Cc1ccc(-c2cc(C(=O)Nc3sc4c(c3C(=O)NCc3ccco3)CCC4)[nH]n2)c(O)c1		inactive: -25.2%
NNc1ncnc2sc3c(c12)CCC3	inconclusive: 8.91 µM [inhibitor, partial curve]	
CCN(CC)C(=O)CSc1nnc(-c2ccccn2)n1-c1ccc(C)c(C)c1	inconclusive: 2.51 µM [inhibitor, partial curve]	
CCn1c(=O)c2sccc2n2c(CCCC(=O)Nc3ccc(Oc4ccccc4)cc3)nnc12	inconclusive: 35.5 µM [inhibitor, single point]	
CCOc1ccccc1CNC(=O)CN1C(=O)c2cccnc2Oc2ccc(C)cc21	inconclusive: 35.5 µM [inhibitor, single point]	
Cc1cnc(C=NNC(N)=S)c2cccc(N)c12	active: 10 µM	
CCC(=O)N1CCCC(C(=O)Nc2nc3ccccc3[nH]2)CC1 (centres undefined)		inactive: 7.66%
C[C@H](CO)N1C[C@H](C)[C@@H](CN(C)C(=O)Nc2ccc(C(F)(F)F)cc2)Oc2ccc(NC(=O)C3CC3)cc2C1=O	inconclusive: 25.1 µM [inhibitor, partial curve, poor fit]	
COc1ccc(-c2cc(C(F)(F)F)nc(S(=O)(=O)CCCC(=O)Nc3cc(C)on3)n2)cc1OC	inconclusive: 5.01 µM [inhibitor, partial curve, poor fit]	
Cc1cc(C(C)(C)C)oc1C(=O)N(CC(=O)NC1CCCC1)Cc1ccccc1Cl	inconclusive: 35.5 µM [inhibitor, single point]	
CCCN1CNc2c(c(=O)[nH]c(=S)n2-c2ccc(Cl)cc2)C1	inconclusive: 35.5 µM [inhibitor, single point]	
CC(=O)N1CCc2cc(Br)cc(S(=O)(=O)CCC(=O)N3CCN(c4cccc(C)c4C)CC3)c21	inconclusive: 20 µM [inhibitor, partial curve, poor fit]	
O=C1/C(=C\c2cccnc2)Sc2ccccc21		inactive: -5.19%
CN1CCN(c2ccc(NC(=O)c3ccc4ccccc4c3)cc2)CC1		inactive: -0.706%
CCC(C)(C)NC(=O)Cn1c(-c2ccc(C)cc2)noc1=O		inactive: 31.2%
C[C@H]1CN([C@@H](C)CO)C(=O)c2cccc(NC(=O)c3nc4ccccc4s3)c2O[C@H]1CN(C)C(=O)Nc1ccc(F)cc1	inconclusive: 0.794 µM [inhibitor, full curve, poor fit]	

SMILES	Potency	activity, negative = inhibition
Cc1[nH]nc2nc(SCC(=O)NCCC3=CCCCC3)n(-c3ccc(Br)cc3)c(=N)c12	active: 15.8 µM	
O=C(Cn1cc(/C=C\[N+](=O)[O-])c2ccccc21)Nc1ccccc1	active: 8.91 µM	
CN(C)C(=O)COC(=O)c1ccccc1OCC(=O)Nc1ccc(SC(F)F)cc1		inactive: -11.2%
Cc1ccc(OCc2ccc(C(=O)NN)o2)c([N+](=O)[O-])c1	inconclusive: 10 µM [inhibitor, partial curve, poor fit]	
O=c1cc(N2CCCCC2)c(-c2ccccc2)nn1Cc1ccc(Cl)cc1		inactive: -8.19%
CCc1nn(C(C)C(=O)N2CCN(c3ccc(OC)cc3)CC2)c(=O)c2cc3occc3n12 (centres undefined)	inconclusive: 12.6 µM [inhibitor, single point]	
Cc1cc(NC(=O)c2cc(-c3ccc(OC(C)C)cc3)nc3ccccc23)no1		inactive: 0.947%
O=C(NCc1ccc(F)cc1)c1ccncc1	inconclusive: 35.5 µM [inhibitor, single point]	
COc1cc2ncnc(NCc3cccc(Cl)c3)c2cc1OC	inconclusive: 35.5 µM [inhibitor, single point]	
C[C@@H]1CN([C@@H](C)CO)C(=O)CCCn2nncc2CO[C@H]1CN(C)S(C)(=O)=O		inactive: 0.568%
CC(OC(=O)c1cccc(S(=O)(=O)Nc2cccc(C(F)(F)F)c2)c1)C(=O)Nc1ccc2c(c1)OCCO2 (centres undefined)	inconclusive: 28.2 µM [inhibitor, single point]	
CCOC(=O)C(NC(=O)CC)(Nc1ccccc1)C(F)(F)F (centres undefined)	inconclusive: 3.55 µM [inhibitor, single point]	
COc1ccc(CNC(=O)CN2CCN(S(=O)(=O)c3cc(Br)ccc3Br)CC2)cc1OC	inconclusive: 6.31 µM [inhibitor, single point]	
CCc1ccc2occ(CC(=O)Nc3c(C(=O)c4ccc(F)cc4)oc4ccccc34)c2c1		inactive: -17.1%
CCc1ccc2c(c1)C(=O)C(=O)N2CCS(=O)(=O)c1ccccc1	inconclusive: 35.5 µM [inhibitor, single point]	
COc1ccc(/C=C/C(=O)c2ccccc2)cc1COc1ccccc1F		inactive: 19.8%
O=C(Nc1ccccc1N1CCCCC1)c1cc(S(=O)(=O)N2CCOCC2)ccc1Cl	inconclusive: 35.5 µM [inhibitor, single point]	
Cc1cc(=O)oc(C)c1C(=O)NC1CCCCCCC1		inactive: 7.34%
CCSC(=S)c1c(C)[nH]n(-c2ccccc2)c1=O	inconclusive: 20 µM [inhibitor, single point]	
Cc1ccccc1[C@@H](NC(=O)OC(C)(C)C)C(=O)OC(C)(C)C		inactive: -0.612%
CCCN(c1ccccc1F)S(=O)(=O)c1cc(-c2cc(C)no2)ccc1C	inconclusive: 6.31 µM [inhibitor, single point]	
COc1ccccc1NC(=O)CSCC(=O)N1c2ccccc2CCc2ccccc21		inactive: -16.6%
C=CCN1C(c2ccc(Br)cc2)=CS/C1=C(/C#N)c1nnc(N2CCOCC2)n1-c1ccccc1		inactive: -24.6%
